# Measured values as given in PubChem BioAssay (Tox21).
# Where “and” joins values, the source holds several entries; their conditions need not be identical. Equal entries are not always repeated. The shares of active, inactive and inconclusive entries below differ from those in the screen. Entries that show only a call come without a potency. For some of these results: A potency beside an inconclusive call is a rough fit, not a confirmed value. Calls of active or inactive are those of the source. Unless noted, the call rests on the fitted dose curve; in most records, active means well fitted curve in the direction sought with a large enough effect in the repeat runs; inconclusive means weak or mixed curves; inactive means no such curve, though single readings can be large; an effect the other way counts as inactive or inconclusive.
# How the values were obtained:
# [1] = Human pregnane X receptor (PXR) small molecule agonists, qHTS cell viability counter screen (AID 1346977); further: nearly all actives have a fitted effect of over 50% in size; further: potency means the concentration at half of the fitted maximal effect
# Method in brief: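 Same-well viability read: CellTiter-Fluor added after 23 hr compound exposure, fluorescence measured 1 hr later. Cells were PXR-Luc HepG2 seeded at 2,000/well in 5% charcoal-stripped FBS medium, rested 5 hr before dosing at 37 C.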
# [2] = Caspase-3/7 induction in CHO-K1 cells by small molecules, qHTS cell viability counter screen (AID 1346979); details: CellTiter-Fluor fluorescence, 17 h; activity change, negative = cytotoxicity: at 92.4 µM (top of the series); further: nearly all actives have a fitted effect of over 35% in size
# Method in brief: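 Cytotoxicity counter screen: CellTiter-Fluor added to compound-treated wild-type CHO-K1 cells at 16 h (37C, 5% CO2), fluorescence measured 1 h later; same wells as caspase-3/7 measurement.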
# [3] = molecular target: Cytochrome P450 2D6 (Homo sapiens) (UniProt P10635); test: Cytochrome P450 Family 2 Subfamily D Member 6 (CYP2D6) small molecule antagonists: luciferase reporter qHTS assay (AID 1671196); further: nearly all actives have a fitted effect of over 50% in size; further: potency means the concentration at half of the fitted maximal effect
# Method in brief: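 Each well received CYP2D6 with its proluciferin substrate and chemical, sat 10 min, then got NADPH regeneration solution for 1 h at room temperature. Luminescence in RLU served as the activity measure.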
# [4] = qHTS assay to identify small molecule antagonists of the TGF-beta/Smad signaling pathway (AID 1346924; active means well fitted inhibition curve with a large enough effect in the signal ratio in the repeat runs, not every such curve was filed as active; inconclusive means weak or mixed curves; the % refers to the signal ratio); details: SBE-bla HEK293T, TGF-beta/Smad reporter, beta-lactamase ratio; activity, negative = inhibition: at 76.8 µM (top of the series) unless noted
# Method in brief: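 SBE-bla HEK 293T cells were plated overnight, then received compound in DMSO plus TGF-beta1 (added as a 0.25 ng/mL solution) and were incubated 5 h at 37 C. Beta-lactamase reporter activity was read after 2 h at room temperature with LiveBLAzer B/G FRET substrate (ex 405, em 460/530 nm).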
# [5] = molecular target: Nuclear receptor subfamily 1 group I member 2 (Homo sapiens) (UniProt O75469); test: Human pregnane X receptor (PXR) small molecule agonists, qHTS assay (AID 1346982); further: nearly all actives have a fitted effect of over 35% in size; further: potency means the concentration at half of the fitted maximal effect
# Method in brief: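 Compound-induced hPXR transactivation of a CYP3A4 luciferase reporter was scored in HepG2 PXR-Luc cells over 24 hr at 37 C, 5% CO2, by luminescence.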
# [6] = molecular target: Cytochrome P450 2C9 (Homo sapiens) (UniProt P11712); test: Cytochrome P450 Family 2 Subfamily C Member 9 (CYP2C9) small molecule antagonists: luciferase reporter qHTS assay (AID 1671198); further: nearly all actives have a fitted effect of over 50% in size; further: potency means the concentration at half of the fitted maximal effect
# Method in brief: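 Enzyme-substrate mix preincubated with compound 10 min at room temperature; reaction started with NADPH regeneration solution, 1 h 37C. Luminescent luciferin product read after 20 min detection reagent.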
# [7] = Caspase-3/7 induction in HepG2 cells by small molecules, qHTS cell viability counter screen (AID 1346981); further: nearly all actives have a fitted effect of over 30% in size; further: potency means the concentration at half of the fitted maximal effect
# Method in brief: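 Viability determined by CellTiter-Fluor fluorescence in HepG2 wells also used for the luminescent Caspase-Glo 3/7 read. Compounds were present for 16 hr at 37 C, 5% CO2 before reagent addition.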
# [8] = molecular target: Nuclear receptor subfamily 1 group I member 2 (Rattus norvegicus) (UniProt Q9R1A7); test: Rat pregnane X receptor (rPXR) activation by small molecules, qHTS assay (AID 1346983); details: rPXR luciferase reporter cells, One-Glo luminescence, 24 h; max activation: stronger effect = higher value; further: nearly all actives have a fitted effect of over 20% in size
# Method in brief: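 Luminescent readout (One-Glo luciferase, 30 min room temperature) followed 24 hr compound treatment at 37 C of rPXR cells plated 2,000 per well and preincubated 5hr; qHTS format with compounds delivered in DMSO.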
# [9] = molecular target: Cytochrome P450 2C19 (Homo sapiens) (UniProt P33261); test: Cytochrome P450 Family 2 Subfamily C Member 19 (CYP2C19) small molecule antagonists: luciferase reporter qHTS assay (AID 1671197); further: nearly all actives have a fitted effect of over 65% in size; further: potency means the concentration at half of the fitted maximal effect
# Method in brief: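 Inhibition of CYP2C19 was scored from loss of luminescence in a P450-Glo proluciferin substrate assay, NADPH-started and run 1 h at 37C, with ketoconazole as positive control.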
# Tags describe the fitted curve by direction and shape.
# Chain of UniProt Q9R1A7 (Q9R1A7 whole entry, looked up): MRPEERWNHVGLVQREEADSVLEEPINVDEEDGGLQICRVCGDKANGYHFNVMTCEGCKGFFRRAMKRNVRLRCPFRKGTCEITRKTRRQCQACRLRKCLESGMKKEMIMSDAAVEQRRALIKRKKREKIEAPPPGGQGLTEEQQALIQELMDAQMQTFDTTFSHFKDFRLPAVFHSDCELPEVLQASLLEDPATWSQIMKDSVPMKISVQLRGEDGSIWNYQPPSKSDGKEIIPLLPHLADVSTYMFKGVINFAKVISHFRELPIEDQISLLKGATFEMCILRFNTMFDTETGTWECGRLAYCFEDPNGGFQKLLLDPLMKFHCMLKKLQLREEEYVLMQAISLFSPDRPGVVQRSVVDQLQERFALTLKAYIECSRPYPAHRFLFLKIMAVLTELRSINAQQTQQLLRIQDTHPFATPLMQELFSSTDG
# Chain of UniProt P10635 (P10635 whole entry, looked up): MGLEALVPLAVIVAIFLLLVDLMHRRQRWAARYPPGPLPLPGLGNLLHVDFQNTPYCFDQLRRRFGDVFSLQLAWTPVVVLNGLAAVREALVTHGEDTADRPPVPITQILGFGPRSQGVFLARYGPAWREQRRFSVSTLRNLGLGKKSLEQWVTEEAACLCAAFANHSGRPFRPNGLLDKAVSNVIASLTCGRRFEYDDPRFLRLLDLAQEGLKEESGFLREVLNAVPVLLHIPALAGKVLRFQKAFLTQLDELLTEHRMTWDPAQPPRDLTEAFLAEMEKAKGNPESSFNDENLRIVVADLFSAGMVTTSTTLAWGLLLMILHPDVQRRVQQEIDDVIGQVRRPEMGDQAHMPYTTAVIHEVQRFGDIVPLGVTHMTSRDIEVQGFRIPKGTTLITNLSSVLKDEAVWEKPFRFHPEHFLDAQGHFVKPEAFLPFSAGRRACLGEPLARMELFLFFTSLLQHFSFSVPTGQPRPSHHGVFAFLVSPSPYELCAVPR
# Chain of UniProt O75469 (O75469 whole entry, looked up): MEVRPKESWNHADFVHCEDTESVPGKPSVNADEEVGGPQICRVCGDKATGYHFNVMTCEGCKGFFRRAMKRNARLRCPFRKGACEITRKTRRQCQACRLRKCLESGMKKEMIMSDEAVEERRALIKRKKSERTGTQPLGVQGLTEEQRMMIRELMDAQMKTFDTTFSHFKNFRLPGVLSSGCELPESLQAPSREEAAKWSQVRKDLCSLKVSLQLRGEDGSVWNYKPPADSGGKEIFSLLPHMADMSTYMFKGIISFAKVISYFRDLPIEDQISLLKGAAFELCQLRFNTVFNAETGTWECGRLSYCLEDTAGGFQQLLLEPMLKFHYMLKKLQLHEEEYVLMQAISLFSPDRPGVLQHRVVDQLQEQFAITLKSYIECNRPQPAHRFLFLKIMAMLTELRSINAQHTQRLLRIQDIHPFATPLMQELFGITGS
# Chain of UniProt P11712 (P11712 whole entry, looked up): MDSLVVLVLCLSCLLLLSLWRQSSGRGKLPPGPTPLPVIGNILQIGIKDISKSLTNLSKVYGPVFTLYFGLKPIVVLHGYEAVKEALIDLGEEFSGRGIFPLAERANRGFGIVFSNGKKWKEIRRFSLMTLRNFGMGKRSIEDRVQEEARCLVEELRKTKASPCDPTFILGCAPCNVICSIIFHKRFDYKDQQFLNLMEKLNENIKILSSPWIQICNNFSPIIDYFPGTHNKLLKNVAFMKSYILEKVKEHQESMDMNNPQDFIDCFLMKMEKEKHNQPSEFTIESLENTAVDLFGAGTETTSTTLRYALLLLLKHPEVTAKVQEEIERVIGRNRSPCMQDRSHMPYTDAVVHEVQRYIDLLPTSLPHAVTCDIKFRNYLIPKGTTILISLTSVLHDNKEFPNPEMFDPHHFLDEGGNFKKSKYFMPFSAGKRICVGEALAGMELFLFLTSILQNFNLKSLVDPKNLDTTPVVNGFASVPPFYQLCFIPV
# Chain of UniProt P33261 (P33261 whole entry, looked up): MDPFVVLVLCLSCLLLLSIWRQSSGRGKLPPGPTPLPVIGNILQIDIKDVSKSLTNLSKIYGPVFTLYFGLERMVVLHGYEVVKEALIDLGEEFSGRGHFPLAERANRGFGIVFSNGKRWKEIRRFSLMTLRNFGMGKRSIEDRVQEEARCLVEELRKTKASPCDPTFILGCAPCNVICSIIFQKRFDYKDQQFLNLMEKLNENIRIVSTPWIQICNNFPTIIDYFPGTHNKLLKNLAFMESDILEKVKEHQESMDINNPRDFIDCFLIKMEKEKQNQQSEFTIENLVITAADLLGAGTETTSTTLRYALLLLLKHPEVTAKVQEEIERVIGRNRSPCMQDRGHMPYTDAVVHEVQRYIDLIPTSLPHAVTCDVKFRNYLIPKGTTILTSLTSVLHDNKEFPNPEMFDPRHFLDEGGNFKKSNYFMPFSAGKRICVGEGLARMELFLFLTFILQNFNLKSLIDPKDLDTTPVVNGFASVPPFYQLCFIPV
compound,measurement,setting,value
CCOC(=O)C(C)(C)C,Potency,[1],inactive
same,Potency,[2],inactive
same,Potency,[3],inactive
O=C(O)CCCC[C@@H]1SC[C@@H]2NC(=O)N[C@@H]21,Potency,[1],inactive
same,Potency,[3],"inconclusive: 43.6 µM [inhibitor, single point]"
O=[N+]([O-])C1(Br)COCOC1,"activity, negative = inhibition",[4],inconclusive: 1.08%
same,Potency,[5],"inconclusive: 68.6 µM [activator, partial curve, poor fit]"
same,Potency,[3],inactive
O=C(O)c1c(Cl)cccc1Cl,Potency,[1],inactive
same,Potency,[6],"inconclusive: 34.9 µM [inhibitor, partial curve]"
CN(C)CC[C@@H](c1ccc(Cl)cc1)c1ccccn1,Potency,[1],"inconclusive: 26.6 µM [cytotoxic, partial curve]"
CCCOCC(C)OCC(C)O (stereo unspecified),Potency,[1],inactive
same,Potency,[7],inactive
FC1(F)C(F)(F)C(F)(F)C2(F)C(F)(F)C(F)(F)C(F)(F)C(F)(F)C2(F)C1(F)F (stereo unspecified),max activation,[8],inactive: -2.25%
C[C@@H]1O[C@@H](OC[C@H]2O[C@@H](Oc3c(-c4ccc(O)c(O)c4)oc4cc(O)cc(O)c4c3=O)[C@H](O)[C@@H](O)[C@@H]2O)[C@H](O)[C@H](O)[C@H]1O,max activation,[8],inactive: -1.22%
COC(=O)C1=C(C)NC(C)=C(C(=O)OCC(C)=O)C1c1ccccc1[N+](=O)[O-] (stereo unspecified),Potency,[5],"inconclusive: 26.6 µM [activator, single point]"
O=C1C(c2[nH]c3ccc(S(=O)(=O)O)cc3c2O)=Nc2ccc(S(=O)(=O)O)cc21,Potency,[7],inactive
same,Potency,[6],"inconclusive: 63.3 µM [inhibitor, partial curve, poor fit]"
Cc1ccc(C(=O)O)o1,Potency,[7],inactive
same,Potency,[3],"inconclusive: 1.79 µM [inhibitor, single point]"
FC(F)(F)C(F)(F)C(F)(F)C(F)(F)CCI,Potency,[5],inactive
same,Potency,[3],inactive
C=CCOCC(CO)(COCC=C)COCC=C,Potency,[5],"inconclusive: 49.1 µM [activator, single point]"
Cc1cccc(C(=O)O)c1[N+](=O)[O-],Potency,[7],inactive
same,Potency,[3],active: 31.8 µM
same,Potency,[6],"inconclusive: 40 µM [inhibitor, partial curve, poor fit]"
O=C(/C=C/c1ccccc1)OC/C=C/c1ccccc1,Potency,[5],"inconclusive: 54.5 µM [activator, partial curve, poor fit]"
same,Potency,[9],active: 35.6 µM
same,Potency,[6],active: 31.7 µM
Cc1cc(Cl)c(C)cc1Cl,Potency,[7],inactive
O=CNNC=O,Potency,[5],inactive
same,Potency,[3],inactive
same,Potency,[6],inactive
C=CCOCC(O)CCl (stereo unspecified),Potency,[7],inactive
same,Potency,[9],"inconclusive: 89.4 µM [inhibitor, single point]"
same,Potency,[6],"inconclusive: 44.8 µM [inhibitor, partial curve, poor fit]"
CC(CCl)OP(=O)(OC(C)CCl)OC(C)CCl (stereo unspecified),Potency,[7],inactive
same,Potency,[5],"inconclusive: 27.4 µM [activator, partial curve] and active: 36.3 µM"
same,Potency,[3],inconclusive: 79.8 µM [inhibitor]
Cc1cc(CCC(=O)OCCOCCOCCOC(=O)CCc2cc(C)c(O)c(C(C)(C)C)c2)cc(C(C)(C)C)c1O,Potency,[5],inconclusive: 53.1 µM [activator]
C=C(CC(=O)O)C(=O)O,Potency,[7],"inconclusive: 28.4 µM [cytotoxic, single point]"
CCCCCCCC(=O)OCCCCCC,Potency,[7],inactive
O=C(O)CNC(=O)c1ccccc1,Potency,[5],"inconclusive: 4.22 µM [activator, single point]"
O=[N+]([O-])c1c(Cl)cc(Cl)cc1Cl,Potency,[7],inactive
same,Potency,[9],inactive
CCCCCCCCCCCCCOC(=O)CCSCCC(=O)OCCCCCCCCCCCCC,"activity change, negative = cytotoxicity",[7],inactive: 6.29% [at 19 µM]
same,Potency,[6],"inconclusive: 6.67 µM [inhibitor, partial curve]"
CN(C)C(=O)Oc1cccc([N+](C)(C)C)c1,Potency,[5],inactive
same,max activation,[8],inactive: -2.37%
same,Potency,[9],inactive
COC(C)(C)OC,Potency,[7],inactive
O=C1OC(=O)c2cc([N+](=O)[O-])ccc21,Potency,[7],inactive
C1OCOCO1,Potency,[5],inactive
CS(=O)(=O)c1ccc([C@@H](O)[C@@H](CO)NC(=O)C(Cl)Cl)cc1,Potency,[7],"inconclusive: 33.5 µM [rising, partial curve, poor fit]"
same,Potency,[9],active: 28.6 µM and active: 17.4 µM
CCN(CC)CCNC(=O)c1ccc(NC(C)=O)cc1,Potency,[5],inactive
COC(=O)c1ccccc1C,Potency,[5],inactive
same,Potency,[9],inactive
COCCc1ccc(OCC2CO2)cc1 (stereo unspecified),Potency,[7],inactive
same,Potency,[3],inactive
same,Potency,[6],"inconclusive: 27.5 µM [inhibitor, partial curve, poor fit]"
